Source: US20170368082A1, “FORMULATIONS OF BRINCIDOFOVIR” (priority 2016, published 2017)
Several values for one entry are separate records, joined by “and”; a condition that tells them apart may be missing. Equal entries are not always repeated. The source gives many values for each of these; only a part stands here.

What was measured:
[1] = Phase 2 toxicokinetics of brincidofovir and cidofovir in plasma; assay type: in vivo, Sprague-Dawley CD rats; details: for Imputed Concentration, Mean / Imputed Concentration, individual animals: brincidofovir 15 mg/kg 2-h IV infusion, BLQ imputed as zero
Experimental: Plasma samples (108) were collected 2 hours following the initiation of dosing on Day 1 and Day 7 (Group 1), or at 1, 2, 8, and 24 hours following the initiation of dosing on Day 1, and prior to administration and at 2, 8, and 24 hours following the initiation of dosing on Day 7 (Groups 2 and 3), and analyzed to determine the concentrations of brincidofovir and the metabolite, cidofovir), by LC/MS/MS.
(§1) Approximately 0.4 mL of whole blood was obtained via the tail vein from each animal at each time point. Animals were not fasted prior to blood collection. Blood was collected into tubes containing K2EDTA anticoagulant and placed on wet ice in an upright position, per facility SOP prior to processing. Plasma was separated by centrifugation (10 minutes at approximately 2000 g, at approximately 2-8° C.). Approximately 0.10 mL of plasma was transferred into a single cryotube appropriately labeled with study number, animal number, time point, date of sampling and sample type. Remaining plasma was transferred into a second cryotube and retained as a backup sample. Plasma frozen at approximately −80±10° C. within approximately 2 hours after collection of each blood sample until analysis. Animals were euthanized (CO2 inhalation) after the final blood collection.
In general, TK parameters were estimated using mean plasma concentrations of brincidofovir and cidofovir derived from the composite blood sampling design using Phoenix WinNonLin (V 6.3).
A composite blood sampling design was used such that each rat was sampled twice per sampling day. Blood was collected via tail vein from unanesthetized animals into tubes containing anticoagulant and placed on wet ice in an upright position. Animals were not fasted prior to blood collection. Plasma was separated by centrifugation (for 10 minutes at approximately 2000 g, at approximately 2-8° C.), and transferred into individually labeled cryotubes. All cryotubes containing the collected plasma samples were appropriately labeled as to study number, animal number, time point, date of sampling and sample type. All plasma samples were obtained and frozen at approximately −80° C. (±10° C.) within approximately 2 hours after collection of each blood sample until analysis.
Rat plasma bioanalysis was conducted by Pyxant Laboratories. Plasma samples were analyzed for concentrations of brincidofovir and cidofovir using a method based upon protein precipitation extraction followed by LC-MS/MS analysis; calibration ranges for brincidofovir and cidofovir were 1.00-1500 ng/mL and 5.00-750 ng/mL, respectively, (Pyxant study number 3025) for a 50 μL aliquot of rat plasma. Sample analysis for ISR was not performed as part of this non-GLP study.
For the generation of Mean Profiles, all sample concentrations that were below the limit of quantitation (BLQ) were set to 0.
All pharmacokinetic parameter estimates were completed using a Non-Compartmental Model (Model 200-202 for IV infusion administration). The AUClast and AUCinf were calculated using the linear up log down trapezoidal rule.

[2] = 28-day study toxicokinetics of brincidofovir and CDV in plasma; assay type: in vivo, Sprague-Dawley CD rats; details: plasma brincidofovir, Day 29, 1 mg/kg, combined male and female rats, mean
Experimental: Blood samples were obtained for the determination of plasma concentrations of brincidofovir and the brincidofovir metabolite, cidofovir.
as §1, with “Approximately 0.40 mL of” for “Approximately 0.4 mL of”, “an upright position. Plasma was” for “an upright position, per facility SOP prior to processing. Plasma was”, “by centrifugation (for 10 minutes at” for “by centrifugation (10 minutes at”, “C.). Approximately 0.150 mL of” for “C.). Approximately 0.10 mL of”, “appropriately labeled as to study number,” for “appropriately labeled with study number,”, “sample. Plasma was obtained and frozen at” for “sample. Plasma frozen at”
Bioanalytical samples were analyzed using a validated liquid chromatographic-triple quadruple mass spectrometric (LC-MS/MS) assay at Pyxant Labs.
Upon receipt of the plasma concentration data, noncompartmental toxicokinetic analysis was performed by Nuventra, Inc. Durham, N.C.

[3] = 1 mg/kg, female rats, Day 1, 1 h, listed as BCV, 1 mg/kg
[4] = 1 mg/kg, female rats, Day 1, 2 h, listed as BCV, 1 mg/kg
[5] = 1 mg/kg, female rats, Day 1, 8 h, listed as BCV, 1 mg/kg
[6] = 1 mg/kg, female rats, Day 7, 2 h, listed as BCV, 1 mg/kg
[7] = 1 mg/kg, female rats, Day 7, 8 h, listed as BCV, 1 mg/kg
[8] = 1 mg/kg, male rats, Day 1, 1 h, listed as BCV, 1 mg/kg
[9] = 1 mg/kg, male rats, Day 1, 2 h, listed as BCV, 1 mg/kg
[10] = 1 mg/kg, male rats, Day 7, 2 h, listed as BCV, 1 mg/kg
[11] = 15 mg/kg, female rats, Day 1, 1 h, listed as BCV, 15 mg/kg
[12] = 15 mg/kg, female rats, Day 1, 2 h, listed as BCV, 15 mg/kg
[13] = 15 mg/kg, female rats, Day 1, 8 h, listed as BCV, 15 mg/kg
[14] = 15 mg/kg, female rats, Day 1, 24 h, listed as BCV, 15 mg/kg
[15] = 15 mg/kg, female rats, Day 7, 2 h, listed as BCV, 15 mg/kg
[16] = 15 mg/kg, female rats, Day 7, 8 h, listed as BCV, 15 mg/kg
[17] = 15 mg/kg, male rats, Day 1, 1 h, listed as BCV, 15 mg/kg
[18] = 15 mg/kg, male rats, Day 1, 2 h, listed as BCV, 15 mg/kg
[19] = 15 mg/kg, male rats, Day 1, 8 h, listed as BCV, 15 mg/kg
[20] = 15 mg/kg, male rats, Day 1, 24 h, listed as BCV, 15 mg/kg
[21] = 15 mg/kg, male rats, Day 7, 2 h, listed as BCV, 15 mg/kg
[22] = 15 mg/kg, male rats, Day 7, 8 h, listed as BCV, 15 mg/kg
[23] = 15 mg/kg, male rats, Day 7, 24 h, listed as BCV, 15 mg/kg

For CCCCCCCCCCCCCCCCOCCCOP(=O)(O)CO[C@H](CO)Cn1ccc(N)nc1=O [Brincidofovir], the “C (Concentration), individual animals” value [1, 3] was 109 ng/mL and 126 ng/mL and 177 ng/mL, the “IC (Imputed Concentration), individual animals” value (from here on “IC (Imputed Concentration)”) [1, 3] was 109 ng/mL and 126 ng/mL and 177 ng/mL and the “C (Concentration), individual animals” value [1, 4] was 253 ng/mL and 164 ng/mL and 155 ng/mL. The “IC (Imputed Concentration)” value [1, 4] was 253 ng/mL and 164 ng/mL and 155 ng/mL, the “C (Concentration), individual animals” value [1, 5] was 2.30 ng/mL and 1.45 ng/mL and the “IC (Imputed Concentration)” value [1, 5] was 2.30 ng/mL and 1.45 ng/mL and 0.00 ng/mL. For the same compound, the “IC (Imputed Concentration)” value ([1]; 1 mg/kg, female rats, Day 1, 24 h) was 0.00 ng/mL, the “IC (Imputed Concentration)” value ([1]; 1 mg/kg, female rats, Day 7, 0 h) was 0.00 ng/mL and the “C (Concentration), individual animals” value [1, 6] was 115 ng/mL and 82.1 ng/mL and 89.2 ng/mL. For the same compound, the “IC (Imputed Concentration)” value [1, 6] was 115 ng/mL and 82.1 ng/mL and 89.2 ng/mL, the “C (Concentration), individual animals” value [1, 7] was 6.58 ng/mL and the “IC (Imputed Concentration)” value [1, 7] was 6.58 ng/mL and 0.00 ng/mL (2×). The “IC (Imputed Concentration)” value ([1]; 1 mg/kg, female rats, Day 7, 24 h) was 0.00 ng/mL, the “C (Concentration), individual animals” value [1, 8] was 156 ng/mL and 244 ng/mL and 280 ng/mL and the “IC (Imputed Concentration)” value [1, 8] was 156 ng/mL and 244 ng/mL and 280 ng/mL. The “C (Concentration), individual animals” value [1, 9] was 220 ng/mL and 283 ng/mL and 203 ng/mL, the “IC (Imputed Concentration)” value [1, 9] was 220 ng/mL and 283 ng/mL and 203 ng/mL and the “IC (Imputed Concentration)” value ([1]; 1 mg/kg, male rats, Day 1, 8 h) was 0.00 ng/mL. For the same compound, the “IC (Imputed Concentration)” value ([1]; 1 mg/kg, male rats, Day 1, 24 h) was 0.00 ng/mL, the “IC (Imputed Concentration)” value ([1]; 1 mg/kg, male rats, Day 7, 0 h) was 0.00 ng/mL and the “C (Concentration), individual animals” value [1, 10] was 255 ng/mL and 189 ng/mL and 179 ng/mL. For the same compound, the “IC (Imputed Concentration)” value [1, 10] was 255 ng/mL and 189 ng/mL and 179 ng/mL, the “IC (Imputed Concentration)” value ([1]; 1 mg/kg, male rats, Day 7, 8 h) was 0.00 ng/mL and the “IC (Imputed Concentration)” value ([1]; 1 mg/kg, male rats, Day 7, 24 h) was 0.00 ng/mL. The “C (Concentration), individual animals” value [1, 11] was 3030 ng/mL and 3930 ng/mL and 3450 ng/mL, the “IC (Imputed Concentration)” value [1, 11] was 3030 ng/mL and 3930 ng/mL and 3450 ng/mL and the “C (Concentration), individual animals” value [1, 12] was 2460 ng/mL and 1860 ng/mL and 3380 ng/mL. The “IC (Imputed Concentration)” value [1, 12] was 1860 ng/mL and 3380 ng/mL, the “C (Concentration), individual animals” value [1, 13] was 7.97 ng/mL and 6.57 ng/mL and the “IC (Imputed Concentration)” value [1, 13] was 7.97 ng/mL and 6.57 ng/mL. The “C (Concentration), individual animals” value [1, 14] was 1.25 ng/mL and 2.48 ng/mL, the “IC (Imputed Concentration)” value [1, 14] was 1.25 ng/mL and 2.48 ng/mL and the “IC (Imputed Concentration)” value ([1]; 15 mg/kg, female rats, Day 7, 0 h) was 0.00 ng/mL. The “C (Concentration), individual animals” value [1, 15] was 2220 ng/mL and 995 ng/mL and 1750 ng/mL, the “IC (Imputed Concentration)” value [1, 15] was 2220 ng/mL and 995 ng/mL and 1750 ng/mL and the “C (Concentration), individual animals” value [1, 16] was 6.27 ng/mL and 4.75 ng/mL. For the same compound, the “IC (Imputed Concentration)” value [1, 16] was 6.27 ng/mL and 4.75 ng/mL, the “IC (Imputed Concentration)” value ([1]; 15 mg/kg, female rats, Day 7, 24 h, listed as BCV, 15 mg/kg) was 2.37 ng/mL and 0.00 ng/mL (2×) and the “C (Concentration), individual animals” value [1, 17] was 4020 ng/mL and 4030 ng/mL and 5060 ng/mL. The “IC (Imputed Concentration)” value [1, 17] was 4020 ng/mL and 4030 ng/mL and 5060 ng/mL, the “C (Concentration), individual animals” value [1, 18] was 2510 ng/mL and 2990 ng/mL and 3010 ng/mL and the “IC (Imputed Concentration)” value [1, 18] was 2510 ng/mL and 2990 ng/mL and 3010 ng/mL. For the same compound, the “C (Concentration), individual animals” value [1, 19] was 8.23 ng/mL and 9.85 ng/mL, the “IC (Imputed Concentration)” value [1, 19] was 8.23 ng/mL and 9.85 ng/mL and the “C (Concentration), individual animals” value [1, 20] was 1.10 ng/mL and 1.36 ng/mL. For the same compound, the “IC (Imputed Concentration)” value [1, 20] was 1.10 ng/mL and 1.36 ng/mL, the “IC (Imputed Concentration)” value ([1]; 15 mg/kg, male rats, Day 7, 0 h) was 0.00 ng/mL and the “C (Concentration), individual animals” value [1, 21] was 1640 ng/mL and 1940 ng/mL and 2150 ng/mL. For the same compound, the “IC (Imputed Concentration)” value [1, 21] was 1640 ng/mL and 1940 ng/mL and 2150 ng/mL, the “C (Concentration), individual animals” value [1, 22] was 7.60 ng/mL and 8.73 ng/mL and the “IC (Imputed Concentration)” value [1, 22] was 7.60 ng/mL and 8.73 ng/mL. For the same compound, the “C (Concentration), individual animals” value [1, 23] was 1.32 ng/mL and 1.17 ng/mL, the “IC (Imputed Concentration)” value [1, 23] was 1.32 ng/mL and 1.17 ng/mL and the “Imputed Concentration, Mean” value ([1]; female rats, Day 7, 8 h) was 5.45. The “Imputed Concentration, Mean” value ([1]; female rats, Day 7, 24 h) was 0.790, the “Imputed Concentration, individual animals” value ([1]; female rats, Day 7, 24 h, listed as BCV) was 2.37 and 0.00 (2×) and the “Imputed Concentration, Mean” value ([1]; male rats, Day 7, 8 h) was 8.72. The “Imputed Concentration, Mean” value ([1]; male rats, Day 7, 24 h) was 1.45, the “Imputed Concentration, individual animals” value ([1]; male rats, Day 7, 24 h, listed as BCV) was 1.85 and 1.32 and 1.17 and the Clast [2] was 126 ng/mL.
